From PubChem BioAssay AID2675 (National Center for Advancing Translational Sciences (NCATS), 2010)
Hit rate of the full screen: of about 280,000 compounds, about 100 (0.036%) were called active. Inconclusive results, whose numbers are uncertain, are shown with a selection of clear calls. Calls follow the shape of the dose curve; as a rule, active = well fitted inhibition curve with a large enough effect in the signal ratio, with a control signal flat (not every such curve was filed as active); inconclusive = small, poorly fitted or top-dose-only effect, or effect the other way, or a change in a side signal; inactive = no such curve, though single readings can be large or run the other way; the % refers to the signal ratio. Potencies of inconclusive entries are doubtful fits and often do not repeat. “Side channel” marks fits to a control or component signal instead of the main read-out.

Molecular target: Muscleblind-like protein 1 (Homo sapiens) (UniProt Q9NR56)
Test: qHTS Assay for Inhibitors of MBNL1-poly(CUG) RNA binding
Details: TR-FRET MBNL1-His/biotin-(CUG)12 binding, 665/545 ratio; activity change, negative = inhibition: at 57.5 µM (top of the series)
Method in brief: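 TR-FRET readout: Ex 340 nm, 665/545 nm emission ratio, normalized to buffer-only (basal) and MBNL1-(CUG)12 controls. Complex of MBNL1-His with Biotin-(CUG)12, compounds 92 nM–58 uM, incubated 60 min at room temperature.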
% is scaled to controls: 0 for no effect and ±100 for the full control effect; potency is read from the fitted curve at half-maximal effect; tags tell the direction and shape of the fitted curve or compound fluorescence and quenching.

UniProt Q9NR56, sequence (Q9NR56 whole entry, looked up): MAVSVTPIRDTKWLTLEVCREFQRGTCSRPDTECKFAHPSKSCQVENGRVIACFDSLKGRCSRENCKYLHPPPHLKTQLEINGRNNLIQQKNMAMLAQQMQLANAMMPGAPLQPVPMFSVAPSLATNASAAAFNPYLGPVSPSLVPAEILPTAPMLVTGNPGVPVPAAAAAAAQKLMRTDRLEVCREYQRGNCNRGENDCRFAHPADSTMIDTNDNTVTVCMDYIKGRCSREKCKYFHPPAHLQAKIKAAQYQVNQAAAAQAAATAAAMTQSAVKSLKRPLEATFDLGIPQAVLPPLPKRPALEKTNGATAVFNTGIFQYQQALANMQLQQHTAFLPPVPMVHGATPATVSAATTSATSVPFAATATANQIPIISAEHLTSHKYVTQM

Row | SMILES | activity change, negative = inhibition | Potency
1 | O=[N+]([O-])c1ccc(Cl)cc1Sc1cccc2cccnc12 | inactive: -16.6% | 
2 | CCOC(=O)c1cc2cc3ccccc3cc2[nH]1 |  | inconclusive: 15.8 µM [quencher, side channel, partial curve]
3 | O=[N+]([O-])c1ccc(Nc2nc(NCCO)nc(N3CCCC3)n2)cc1 |  | inconclusive: 15.8 µM [quencher, side channel, partial curve]
4 | O=C(CCCN1C(=O)c2cccc3cccc(c23)C1=O)N1CCN(c2ncccn2)CC1 |  | inconclusive: 2.24 µM [quencher, side channel, full curve, poor fit]
5 | CC1(c2ccc([N+](=O)[O-])c(CS(=O)(=O)c3ccccc3)c2)OCCO1 |  | inconclusive: 25.1 µM [quencher, side channel, partial curve]
6 | Cc1ccc(NC(=O)COC(=O)c2cccc3c2C(=O)c2ccccc2C3=O)c(C)c1 |  | inconclusive: 10 µM [quencher, side channel, partial curve]
7 | COc1ccc(C(=O)NCCN2CCOCC2)cc1[N+](=O)[O-] |  | inconclusive: 28.2 µM [quencher, side channel, single point]
8 | Cc1cc([N+](=O)[O-])nn1CC(=O)NCc1nc2ccccc2[nH]1 | inactive: 16.7% | 
9 | COc1ccc2c(c1OC)C(=O)OC2Nc1nc(-c2cc3cc([N+](=O)[O-])ccc3oc2=O)cs1 (stereo not drawn) |  | inconclusive: 2.51 µM [quencher, side channel, full curve]
10 | COc1ccc(OC)c(/C=C/C(=O)Nc2ccc(OC)nc2)c1 |  | inconclusive: 28.2 µM [quencher, side channel, single point]
11 | CCN(CC)c1nc2ccccc2nc1C(C#N)C(=O)NCCCOC (stereo not drawn) |  | inconclusive: 28.2 µM [quencher, side channel, single point]
12 | O=C(CCCC1=NS(=O)(=O)c2ccccc2N1)N1CCN(c2ccc([N+](=O)[O-])cc2)CC1 |  | inconclusive: 3.55 µM [quencher, full curve]
13 | COc1ccc(-c2cc(C(F)(F)F)nc(S(=O)(=O)CCC(=O)N3CCOCC3)n2)cc1 | inactive: -13% | 
14 | Nc1c(C(=O)N2CCOCC2)sc2nc3c(cc12)CCC3 |  | inconclusive: 25.1 µM [quencher, side channel, partial curve]
15 | Cc1ccc(SCCC(=O)NC(C)(C)C)cc1 |  | inconclusive: 28.2 µM [fluorescent, side channel, partial curve, poor fit]
16 | COc1ccc(NC(=O)Cn2nnc3sc4c(c3c2=O)CC(C)(C)OC4)cc1 |  | inconclusive: 28.2 µM [quencher, single point]
17 | COC/C=C/C1=CC2=CC(=O)C(C)(OC(=O)c3cnc4ccccc4n3)C(=O)C2=CN1C(CO)CO (stereo not drawn) |  | inconclusive: 25.1 µM [quencher, side channel, partial curve]
18 | CCN1CCN(Cc2nc3ccc([N+](=O)[O-])cc3c(=O)n2-c2ccc(OC)cc2OC)CC1 |  | inconclusive: 12.6 µM [quencher, side channel, partial curve]
19 | CCOC(=O)C1CCCN(c2cc(NCCCO)c([N+](=O)[O-])c3nonc23)C1 (stereo not drawn) |  | inconclusive: 14.1 µM [quencher, side channel, partial curve]

Row | SMILES | activity change, negative = inhibition | Potency
20 | c1ccc(-c2nnc3sc(-c4csc5c4CCCC5)nn23)cc1 | inactive: -11.7% | 
21 | COc1cccc(CNC(=O)C2CCCN(S(=O)(=O)c3cccc4nonc34)C2)c1 (stereo not drawn) |  | inconclusive: 2.24 µM [quencher, side channel, full curve]
22 | COc1ccc(Nc2ccncc2[N+](=O)[O-])cc1 |  | inconclusive: 3.98 µM [quencher, side channel, partial curve]
23 | O=C(Nc1ccc([N+](=O)[O-])cc1)C1CC12CCC2 (stereo not drawn) |  | inconclusive: 17.8 µM [quencher, side channel, partial curve]
24 | COc1ccccc1-c1cn[nH]c(=S)n1 |  | inconclusive: 0.158 µM [quencher, side channel, full curve]
25 | CN=C1c2cc3cc(OC)ccc3n2CCN1Cc1ccccc1 |  | inconclusive: 15.8 µM [quencher, side channel, partial curve]
26 | Cc1ccnc(SCc2cc(=O)c(OC(=O)c3cc([N+](=O)[O-])ccc3Cl)co2)n1 |  | inconclusive: 25.1 µM [quencher, single point]
27 | O=C(/C=C/c1ccccc1)Nn1c(-c2cccs2)nc2ccccc2c1=O | inactive: 12.1% | 
28 | CC(C)N1CSC(=S)N(Cc2ccccc2)C1 | inactive: -8.87% | 
29 | COc1cc(-c2nc3ccccn3c2/N=C/c2cc(OC)c(O)cc2Cl)ccc1O |  | inconclusive: 20 µM [quencher, side channel, single point]
30 | CN1Cc2sc(N)c(C#N)c2CC1(C)C |  | inconclusive: 14.1 µM [quencher, partial curve]
31 | CC(C)NC(=O)NNC(=O)Cn1nnc(-c2cccc(Cl)c2Cl)n1 | inactive: -2.91% | 
32 | Cc1ccc(C)c(Cn2c(=O)n(-c3ccc(CC(=O)NCc4ccco4)cc3)c(=O)c3sccc32)c1 |  | inconclusive: 0.562 µM [quencher, side channel, single point]
33 | O=C(N/N=C/c1ccc(O)c([N+](=O)[O-])c1)c1ccncc1 |  | inconclusive: 3.16 µM [quencher, side channel, full curve]
34 | O=C(N/N=C\c1ccccn1)C1COc2cc3ccccc3cc2O1 (stereo not drawn) |  | inconclusive: 14.1 µM [quencher, side channel, partial curve]
35 | O=C(CN1C(=O)/C(=C/c2ccco2)SC1=S)NC1CCS(=O)(=O)C1 (stereo not drawn) |  | inconclusive: 10 µM [quencher, partial curve]
36 | O=C(/C=C/c1ccccc1)NC(=S)Nc1ccc(CN2CCOCC2)cc1 | inactive: -7.38% | 
37 | O=C(Nc1ccccc1[N+](=O)[O-])C1=C(O)CCn2c1nc1ccccc12 |  | inconclusive: 3.98 µM [quencher, side channel, single point]
38 | NC(=O)c1sc2nc(N3CCOCC3)c3c(c2c1N)CCCC3 |  | inconclusive: 25.1 µM [quencher, side channel, partial curve]
